Measured values taken from patent publication US20240124575A1 (SIMCERE ZAIMING PHARMACEUTICAL, published 2024).

Legend:
[1] = target: T1, human CD33 on U937 cells (endogenous) (human, UniProt P20138); test: FACS, U937 cells
T1 construct: whole, on cells

[2] = target: T2, human CD33-His (extracellular domain Asp 18-His 259) (human, UniProt P20138 18-259); test: ELISA, antigen coated
T2 construct: range 18-259; bought protein; also called hCD33-his; human CD33 protein; not shown: His tag

murine CD33-His protein [3] = target: T3, murine CD33-His protein (murine, UniProt Q63994 18-240, limits assumed); test: ELISA, antigen coated
T3 construct: also called murine CD33 protein
T3 sequence (looked up): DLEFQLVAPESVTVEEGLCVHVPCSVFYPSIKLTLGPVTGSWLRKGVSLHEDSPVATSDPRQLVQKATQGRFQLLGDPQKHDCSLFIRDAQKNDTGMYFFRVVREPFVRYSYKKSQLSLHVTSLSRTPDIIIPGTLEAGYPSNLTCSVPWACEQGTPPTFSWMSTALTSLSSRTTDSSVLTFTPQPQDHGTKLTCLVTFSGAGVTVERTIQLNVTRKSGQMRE

[4] = target: T4, human CD33 on CHO-K1 cells (CHO-K1-human CD33) (human, UniProt P20138); test: FACS, CHO-K1-human CD33 cells
T4 construct: whole, on cells; stably transfected CHO-K1 clones; also called CHO-K1-hCD33-B8; CHO-K1-human CD33 B8

human CD33-C2-his = target: T5, human CD33-C2-his (human, UniProt P20138 136-260); test: ELISA on coated human CD33-C2-his
T5 construct: expressed in HEK293E; also called hCD33-C2-his; human CD33 protein C2-domain; not shown: His tag

human CD33-V-his = target: T6, human CD33-V-his (human, UniProt P20138 18-144); test: ELISA on coated human CD33-V-his
T6 construct: expressed in HEK293E; also called hCD33-V-his; human CD33 protein V-domain; not shown: His tag

murine CD33-His protein [5] = target: T3, murine CD33-His protein; test: ELISA on coated murine CD33-his

human CD33-C2-his, sequence (P20138 other isoform, or with tags, fused parts or gaps limits assumed): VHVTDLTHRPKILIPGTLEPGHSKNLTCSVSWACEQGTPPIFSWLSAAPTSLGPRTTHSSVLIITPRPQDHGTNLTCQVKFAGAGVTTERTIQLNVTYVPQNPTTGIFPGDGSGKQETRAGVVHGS
human CD33-V-his, sequence (P20138 other isoform, or with tags, fused parts or gaps limits assumed): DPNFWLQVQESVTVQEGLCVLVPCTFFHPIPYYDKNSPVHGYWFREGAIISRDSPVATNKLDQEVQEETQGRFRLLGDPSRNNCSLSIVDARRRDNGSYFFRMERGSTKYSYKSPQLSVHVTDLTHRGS

| Binder | EC50 [1] | Max MFI [1] | OD450 at 0.0001 nM [2] | OD450 at 0.001 nM [2] | OD450 at 0.01 nM [2] | OD450 at 0.1 nM [2] | OD450 at 1 nM [2] | OD450 at 10 nM [2] | OD450 at 100 nM [2] | OD450 at 0.0001 nM (murine CD33-His protein [3]) | OD450 at 0.001 nM (murine CD33-His protein [3]) | OD450 at 0.01 nM (murine CD33-His protein [3]) | OD450 at 0.1 nM (murine CD33-His protein [3]) | OD450 at 1 nM (murine CD33-His protein [3]) | OD450 at 10 nM (murine CD33-His protein [3]) | OD450 at 100 nM (murine CD33-His protein [3]) | EC50 [4] | binding result (human CD33-C2-his) | binding result (human CD33-V-his) | binding result (murine CD33-His protein [5]) | other results |
| --- | --- | --- | --- | --- | --- | --- | --- | --- | --- | --- | --- | --- | --- | --- | --- | --- | --- | --- | --- | --- | --- |
| S006-NB146-39 (Fc fusion, also called VHH-Fc) EVQLVESGGGLVQPGESLRLSCTAPGIILDYYPIGWFRQAPGKEREGVAFITNSDDSTIYTNYADSVKGRFTISREKNTVYLQMNSLKPEDTALYYCAARSTYIVGRNENALNSSDYDYWGQGTQVTVSS[letters of human IgG1 Fc with changes left out] | 11.3 nM | 650 MFI | 0.05 OD450 | 0.06 OD450 | 0.06 OD450 | 0.14 OD450 | 1.81 OD450 | 2.81 OD450 | 2.97 OD450 | 0.06 OD450 | 0.06 OD450 | 0.06 OD450 | 0.06 OD450 | 0.06 OD450 | 0.06 OD450 | 0.06 OD450 | 44.4 nM |  |  |  | Max MFI [4]: 16300 MFI |
| S006-NB146-46 (Fc fusion, also called VHH-Fc) QLQLVESGGGLVQPGGSLRLSCTAPGIVLDYYPIGWFRQAPGKEREGVSFITNSDDSTIYTNYADSVKGRFTISREKNTVYLQMNSLKPEDTAVYYCAARSTYIVGRNENALNASDYDYWGQGTQVTVSS[letters of human IgG1 Fc with changes left out] | 14.7 nM | 589 MFI | 0.06 OD450 | 0.06 OD450 | 0.07 OD450 | 0.19 OD450 | 1.92 OD450 | 2.91 OD450 | 2.85 OD450 | 0.06 OD450 | 0.06 OD450 | 0.06 OD450 | 0.06 OD450 | 0.06 OD450 | 0.06 OD450 | 0.06 OD450 | 38 nM |  |  |  | Max MFI [4]: 16500 MFI |
| S006-NB146-17-H1 (Fc fusion, also called humanized VHH-Fc) EVQLVESGGGLVQPGGSLRLSCAASGSIFTSDDMDYAMGWYRQAPGKQREWVATITSDEDTYYVDSVKGRFTISRDNAKNSLYLQMNSLRAEDTAVYYCFANVRSDRSSLYRNYWGQGTMVTVSS[letters of human IgG1 Fc with changes left out] |  |  |  |  |  |  |  |  |  |  |  |  |  |  |  |  |  | no binding (tested: 100 nM) | no binding (tested: 100 nM) | no binding (tested: 100 nM) |  |
| S006-NB146-20 (Fc fusion, also called VHH-Fc; S5006-NB146-20) EVQLVESGGGSVQAGGSLRLSCGTPQSWFRLSSYVMNWYRQAPGKRRELVAEITQDDTTNYTPSVKGRFAISRDNANNTVHLQMNSLKPEDTAVYYCNTIQIWGQGTQVTVSS[letters of human IgG1 Fc with changes left out] | 5.32 nM | 668 MFI | 0.06 OD450 | 0.07 OD450 | 0.09 OD450 | 0.47 OD450 | 1.55 OD450 | 2.82 OD450 | 2.75 OD450 | 0.06 OD450 | 0.06 OD450 | 0.06 OD450 | 0.06 OD450 | 0.06 OD450 | 0.06 OD450 | 0.06 OD450 | 9.75 nM |  |  |  | Max MFI [4]: 20500 MFI |
| S006-NB146-3 (Fc fusion, also called VHH-Fc) EVQVVESGGGLVQSGGSLRLSCAASGAIFTSNAMDYAMGWYRQVSGKQREWVATITSDDDTNYGDSAKGRFTISRDSAKNTAYLQMNSLKPEDTAVYYCFANVRSDRSTLYRNYWGQGTQVTVSS[letters of human IgG1 Fc with changes left out] | 4.09 nM | 1140 MFI | 0.06 OD450 | 0.06 OD450 | 0.07 OD450 | 0.26 OD450 | 1.58 OD450 | 2.81 OD450 | 2.95 OD450 | 0.06 OD450 | 0.06 OD450 | 0.06 OD450 | 0.06 OD450 | 0.06 OD450 | 0.07 OD450 | 0.07 OD450 | 1.04 nM |  |  |  | Max MFI [4]: 6420 MFI |
| S006-NB146-40 (Fc fusion, also called VHH-Fc) QVQLVESGGGLVQSGGSLRLSCAASGSIFTSNDMDYAMGWYRQVSGKQREWVATITSDEDTNYGDSVKGRFTISRDSAKNTAYLQMNSLKPEDTAVYYCFANLRSDRSTLYRNYWGQGTQVTVSS[letters of human IgG1 Fc with changes left out] | 3.82 nM | 1100 MFI | 0.05 OD450 | 0.05 OD450 | 0.07 OD450 | 0.27 OD450 | 2.46 OD450 | 2.8 OD450 | 2.9 OD450 | 0.06 OD450 | 0.06 OD450 | 0.06 OD450 | 0.06 OD450 | 0.06 OD450 | 0.06 OD450 | 0.06 OD450 | 1.09 nM |  |  |  | Max MFI [4]: 6430 MFI |
| S006-NB146-17-H4 (Fc fusion, also called humanized VHH-Fc) QVQLVESGGGLVQPGGSLRLSCAASGSIFTSDDMDYAMGWYRQAPGKQREWVATITSDEDTNYVDSVKGRFTISRDNAKNSAYLQMNSLRAEDTAVYYCFANVRSDRSSLYRNYWGQGTMVTVSS[letters of human IgG1 Fc with changes left out] |  |  |  |  |  |  |  |  |  |  |  |  |  |  |  |  |  | no binding (tested: 100 nM) | no binding (tested: 100 nM) | no binding (tested: 100 nM) |  |
| S006-NB146-17-H2 (Fc fusion, also called humanized VHH-Fc) EVQLVESGGGLVQPGGSLRLSCAASGSIFTSDDMDYAMGWYRQAPGKQREWVATITSDEDTNYVDSVKGRFTISRDNAKNSLYLQMNSLRAEDTAVYYCFANVRSDRSSLYRNYWGQGTMVTVSS[letters of human IgG1 Fc with changes left out] |  |  |  |  |  |  |  |  |  |  |  |  |  |  |  |  |  | no binding (tested: 100 nM) | no binding (tested: 100 nM) | no binding (tested: 100 nM) |  |
| S006-NB146-17-H6 (Fc fusion, also called humanized VHH-Fc) EVQLVESGGGLVQPGGSLRLSCAASGSIFTSDDMDYAMGWYRQAPGKQREWVATITSDEDTNYGDSVKGRFTISRDNAKNSAYLQMNSLRAEDTAVYYCFANVRSDRSSLYRNYWGQGTMVTVSS[letters of human IgG1 Fc with changes left out] |  |  |  |  |  |  |  |  |  |  |  |  |  |  |  |  |  | no binding (tested: 100 nM) | no binding (tested: 100 nM) | no binding (tested: 100 nM) |  |
| S006-NB146-17-H3 (Fc fusion, also called humanized VHH-Fc) EVQLVESGGGLVQPGGSLRLSCAASGSIFTSDDMDYAMGWYRQAPGKQREWVATITSDEDTNYVDSVKGRFTISRDNAKNSAYLQMNSLRAEDTAVYYCFANVRSDRSSLYRNYWGQGTMVTVSS[letters of human IgG1 Fc with changes left out] |  |  |  |  |  |  |  |  |  |  |  |  |  |  |  |  |  | no binding (tested: 100 nM) | no binding (tested: 100 nM) | no binding (tested: 100 nM) |  |
| S006-NB146-17-H5 (Fc fusion, also called humanized VHH-Fc) EVQLVESGGGLVQPGGSLRLSCAASGSIFTSQDMDYAMGWYRQAPGKQREWVATITSDEDTNYVDSVKGRFTISRDNAKNSAYLQMNSLRAEDTAVYYCFANVRSDRSSLYRNYWGQGTMVTVSS[letters of human IgG1 Fc with changes left out] |  |  |  |  |  |  |  |  |  |  |  |  |  |  |  |  |  | no binding (tested: 100 nM) | no binding (tested: 100 nM) | no binding (tested: 100 nM) |  |
